Data as given in publication PMC5700166.
The entries are a selection whose mix differs from that of the whole data set. The list includes weakly bound sequences.

How the values were obtained:
GST-Co-NF-kB = molecular target: T1, GST-Co-NF-kB (UniProt F1ARL5); assay: protein-binding microarray (PBM); details: PBM: ~300 nM protein, 6 mM HEPES pH 7.8, 80 mM KCl, 0.5 mM EDTA, 0.5 mM EGTA, 6% glycerol, 35 ng/ul poly-dIdC, 1% milk, 1 h, room temperature; high values mean tight binding; double strand, one strand shown
T1 sequence: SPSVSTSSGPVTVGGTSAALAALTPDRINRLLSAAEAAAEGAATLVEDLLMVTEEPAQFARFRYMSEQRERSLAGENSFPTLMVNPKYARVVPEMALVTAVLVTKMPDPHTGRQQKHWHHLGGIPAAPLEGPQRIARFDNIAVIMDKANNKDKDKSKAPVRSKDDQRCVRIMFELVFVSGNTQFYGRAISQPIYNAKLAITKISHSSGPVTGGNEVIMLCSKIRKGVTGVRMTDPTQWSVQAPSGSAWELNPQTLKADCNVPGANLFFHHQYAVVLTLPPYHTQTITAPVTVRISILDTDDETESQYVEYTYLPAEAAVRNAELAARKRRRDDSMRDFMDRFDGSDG

GST-Dm-Relish = molecular target: T2, GST-Dm-Relish (UniProt Q94527); assay: protein-binding microarray (PBM); details: PBM: ~300 nM protein, 6 mM HEPES pH 7.8, 80 mM KCl, 0.5 mM EDTA, 0.5 mM EGTA, 6% glycerol, 35 ng/ul poly-dIdC, 1% milk, 1 h, room temperature; Ap Aiptasia and Nv Nematostella (sea anemones) / Co Capsaspora / Aq Amphimedon (sponge) / Dm Drosophila / Hu human; RHD is the Rel homology domain; high values mean tight binding; most listed sequences are background and not binding sites; double strand, one strand shown
T2 sequence: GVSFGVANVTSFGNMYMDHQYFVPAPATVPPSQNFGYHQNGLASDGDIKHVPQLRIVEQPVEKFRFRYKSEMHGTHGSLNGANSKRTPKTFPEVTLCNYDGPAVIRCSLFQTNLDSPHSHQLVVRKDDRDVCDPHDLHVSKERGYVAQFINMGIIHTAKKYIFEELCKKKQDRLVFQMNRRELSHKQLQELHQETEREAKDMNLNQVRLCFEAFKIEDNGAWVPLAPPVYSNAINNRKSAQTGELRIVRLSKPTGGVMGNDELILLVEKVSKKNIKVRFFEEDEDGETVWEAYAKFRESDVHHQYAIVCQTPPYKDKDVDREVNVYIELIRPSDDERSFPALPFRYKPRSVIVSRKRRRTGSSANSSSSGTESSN

| Sequence | binding signal (GST-Co-NF-kB) [z-score] | binding signal (GST-Dm-Relish) [z-score] |
| --- | --- | --- |
| CCGATTAACATCAAGAAAACCCCTGATGTTAATCGGGTCTTGATTCGCTTGACGCTGCTG | 2.44 | – |
| CCGATTAACATCAGGGATTCCACTGATGTTAATCGGGTCTTGATTCGCTTGACGCTGCTG | 0.567 | – |
| CCGATTAACATCACGAATTTCCCTGATGTTAATCGGGTCTTGATTCGCTTGACGCTGCTG | 4.33 | – |
| CCGATTAACATCAAGTCTCCCCCTGATGTTAATCGGGTCTTGATTCGCTTGACGCTGCTG | 8.63 | – |
| CCGATTAACATCAAGGGAAATCCTGATGTTAATCGGGTCTTGATTCGCTTGACGCTGCTG | 3.33 | – |
| CCGATTAACATCAATAAAGTCCCTGATGTTAATCGGGTCTTGATTCGCTTGACGCTGCTG | 0.908 | – |
| CCGATTAACATCACGGGTTTTCCTGATGTTAATCGGGTCTTGATTCGCTTGACGCTGCTG | 1.18 | – |
| CCGATTAACATCAGGGGGCATTATGATGTTAATCGGGTCTTGATTCGCTTGACGCTGCTG | 2.64 | – |
| CCGATTAACATCAAAAAAACCCATGATGTTAATCGGGTCTTGATTCGCTTGACGCTGCTG | 1.87 | – |
| CCGATTAACATCAGGTAATCACCTGATGTTAATCGGGTCTTGATTCGCTTGACGCTGCTG | -1.08 | – |
| CCGATTAACATCAATGGGAAAATTGATGTTAATCGGGTCTTGATTCGCTTGACGCTGCTG | 3.46 | – |
| CCGATTAACATCAGGGTATTCCATGATGTTAATCGGGTCTTGATTCGCTTGACGCTGCTG | 1.19 | – |
| CCGATTAACATCAGGAAATTACCTGATGTTAATCGGGTCTTGATTCGCTTGACGCTGCTG | 0.0522 | – |
| CCGATTAACATCAGGGGGTATTATGATGTTAATCGGGTCTTGATTCGCTTGACGCTGCTG | 4.88 | – |
| CCGATTAACATCACCGTTCCCCCTGATGTTAATCGGGTCTTGATTCGCTTGACGCTGCTG | 6.76 | – |
| CCGATTAACATCATGGGGGGAAATGATGTTAATCGGGTCTTGATTCGCTTGACGCTGCTG | 9.84 | – |
| CCGATTAACATCAGGGGAAATACTGATGTTAATCGGGTCTTGATTCGCTTGACGCTGCTG | 8.2 | – |
| CCGATTAACATCAGGGGAATACATGATGTTAATCGGGTCTTGATTCGCTTGACGCTGCTG | 6.18 | – |
| CCGATTAACATCAAGTTCCCCCATGATGTTAATCGGGTCTTGATTCGCTTGACGCTGCTG | 10.1 | – |
| CCGATTAACATCAGGGGGAACACTGATGTTAATCGGGTCTTGATTCGCTTGACGCTGCTG | 8.64 | – |
| CCGATTAACATCACATTTCCCCATGATGTTAATCGGGTCTTGATTCGCTTGACGCTGCTG | 7.21 | – |
| CCGATTAACATCACCCACTCCCCTGATGTTAATCGGGTCTTGATTCGCTTGACGCTGCTG | 2.82 | – |
| CCGATTAACATCAGGGAGGCCCCTGATGTTAATCGGGTCTTGATTCGCTTGACGCTGCTG | 0.639 | – |
| CCGATTAACATCAAAAAACACCCTGATGTTAATCGGGTCTTGATTCGCTTGACGCTGCTG | 2.93 | – |
| CCGATTAACATCAGGATTTCCCATGATGTTAATCGGGTCTTGATTCGCTTGACGCTGCTG | 3.18 | – |
| CCGATTAACATCAGGGACTCACCTGATGTTAATCGGGTCTTGATTCGCTTGACGCTGCTG | 0.315 | – |

| Sequence | binding signal (GST-Co-NF-kB) [z-score] | binding signal (GST-Dm-Relish) [z-score] |
| --- | --- | --- |
| CCGATTAACATCACCAAATCCCCTGATGTTAATCGGGTCTTGATTCGCTTGACGCTGCTG | 3.02 | – |
| CCGATTAACATCAGAAAAACACCTGATGTTAATCGGGTCTTGATTCGCTTGACGCTGCTG | 0.354 | 3.66 |
| CCGATTAACATCAAGGGCTTCCCTGATGTTAATCGGGTCTTGATTCGCTTGACGCTGCTG | 0.641 | 7.18 |
| CCGATTAACATCAGGGGATTGTATGATGTTAATCGGGTCTTGATTCGCTTGACGCTGCTG | 3.04 | 4.19 |
| CCGATTAACATCATAGTCCCATGTGATGTTAATCGGGTCTTGATTCGCTTGACGCTGCTG | -0.199 | 0.684 |
| CCGATTAACATCAGGAACGTCCCTGATGTTAATCGGGTCTTGATTCGCTTGACGCTGCTG | -0.167 | 0.919 |
| CCGATTAACATCAGGCATCCCCATGATGTTAATCGGGTCTTGATTCGCTTGACGCTGCTG | 1.82 | 3.01 |
| CCGATTAACATCAAGGGGTTTCCTGATGTTAATCGGGTCTTGATTCGCTTGACGCTGCTG | 0.91 | 7.98 |
| CCGATTAACATCAGGGGCGGGAATGATGTTAATCGGGTCTTGATTCGCTTGACGCTGCTG | 3.85 | 2.49 |
| CCGATTAACATCAGATGGGAAAATGATGTTAATCGGGTCTTGATTCGCTTGACGCTGCTG | 2.47 | 0.61 |
| CCGATTAACATCAGGAAGGTCCCTGATGTTAATCGGGTCTTGATTCGCTTGACGCTGCTG | 0.0241 | 1.64 |
| CCGATTAACATCACCCACTTCCCTGATGTTAATCGGGTCTTGATTCGCTTGACGCTGCTG | 1.4 | 0.872 |
| CCGATTAACATCACGGAAGTCCCTGATGTTAATCGGGTCTTGATTCGCTTGACGCTGCTG | 0.398 | 6.53 |
| CCGATTAACATCAGAAAAATCCCTGATGTTAATCGGGTCTTGATTCGCTTGACGCTGCTG | 2.27 | 9.03 |
| CCGATTAACATCACGGTATTCCCTGATGTTAATCGGGTCTTGATTCGCTTGACGCTGCTG | 3.34 | 6.53 |
| CCGATTAACATCAACAAAGTCCCTGATGTTAATCGGGTCTTGATTCGCTTGACGCTGCTG | 0.949 | 5.26 |
| CCGATTAACATCAGGAACCCCCCTGATGTTAATCGGGTCTTGATTCGCTTGACGCTGCTG | 3.38 | 9.74 |
| CCGATTAACATCAGGGGGGTGCATGATGTTAATCGGGTCTTGATTCGCTTGACGCTGCTG | 3.47 | 4.16 |
| CCGATTAACATCAGGAATTCACCTGATGTTAATCGGGTCTTGATTCGCTTGACGCTGCTG | -0.0751 | 6.05 |
| CCGATTAACATCAGGGGGCTTTATGATGTTAATCGGGTCTTGATTCGCTTGACGCTGCTG | 1.85 | 6.23 |
| CCGATTAACATCATCAGGGAAAATGATGTTAATCGGGTCTTGATTCGCTTGACGCTGCTG | 2.95 | 0.679 |
| CCGATTAACATCAAAGCTTTCCCTGATGTTAATCGGGTCTTGATTCGCTTGACGCTGCTG | 3.59 | 1.47 |
| CCGATTAACATCAAATCTCCCCCTGATGTTAATCGGGTCTTGATTCGCTTGACGCTGCTG | 10.1 | 4.14 |
| CCGATTAACATCAGGGTACTACCTGATGTTAATCGGGTCTTGATTCGCTTGACGCTGCTG | 0.683 | 1.62 |
| CCGATTAACATCATGGGGAAAAATGATGTTAATCGGGTCTTGATTCGCTTGACGCTGCTG | 9.78 | 2.39 |
| CCGATTAACATCAAATTTCCCATTGATGTTAATCGGGTCTTGATTCGCTTGACGCTGCTG | 3.32 | 2.68 |

| Sequence | binding signal (GST-Co-NF-kB) [z-score] | binding signal (GST-Dm-Relish) [z-score] |
| --- | --- | --- |
| CCGATTAACATCAGGGAATCACCTGATGTTAATCGGGTCTTGATTCGCTTGACGCTGCTG | 2.45 | 10.3 |
| CCGATTAACATCAATATTTTCCCTGATGTTAATCGGGTCTTGATTCGCTTGACGCTGCTG | 6.01 | 2.69 |
| CCGATTAACATCAGGGAAAGGAATGATGTTAATCGGGTCTTGATTCGCTTGACGCTGCTG | 1.48 | 0.439 |
| CCGATTAACATCAGATATTACCCTGATGTTAATCGGGTCTTGATTCGCTTGACGCTGCTG | 2.75 | 0.961 |
| CCGATTAACATCAACTTTTTCCCTGATGTTAATCGGGTCTTGATTCGCTTGACGCTGCTG | 5.52 | 0.821 |
| CCGATTAACATCAAAAAAATACCTGATGTTAATCGGGTCTTGATTCGCTTGACGCTGCTG | 0.433 | 5.83 |
| CCGATTAACATCAGGGGATATTATGATGTTAATCGGGTCTTGATTCGCTTGACGCTGCTG | 4.65 | 6.28 |
| CCGATTAACATCATGGTGGGAAATGATGTTAATCGGGTCTTGATTCGCTTGACGCTGCTG | 2.94 | 0.874 |
| CCGATTAACATCAGGGGATTCCATGATGTTAATCGGGTCTTGATTCGCTTGACGCTGCTG | 3.19 | 10 |
| CCGATTAACATCAATTTTCCCAATGATGTTAATCGGGTCTTGATTCGCTTGACGCTGCTG | 3.99 | 1.29 |
| CCGATTAACATCAGAAAAAACCCTGATGTTAATCGGGTCTTGATTCGCTTGACGCTGCTG | 0.846 | 6.15 |
| CCGATTAACATCAGCAAATCCCCTGATGTTAATCGGGTCTTGATTCGCTTGACGCTGCTG | 2.93 | 5.54 |
| CCGATTAACATCAATCCTCCCCCTGATGTTAATCGGGTCTTGATTCGCTTGACGCTGCTG | 8.24 | 2.9 |
| CCGATTAACATCAGGGACCGCCCTGATGTTAATCGGGTCTTGATTCGCTTGACGCTGCTG | 0.508 | 1.91 |
| CCGATTAACATCAGGGGGAAACATGATGTTAATCGGGTCTTGATTCGCTTGACGCTGCTG | 10.9 | 3.99 |
| CCGATTAACATCAGGGAAGGACCTGATGTTAATCGGGTCTTGATTCGCTTGACGCTGCTG | 0.763 | 4.44 |
| CCGATTAACATCACTATACCCCCTGATGTTAATCGGGTCTTGATTCGCTTGACGCTGCTG | 4.36 | 2.21 |
| CCGATTAACATCAGGAGCTTCCCTGATGTTAATCGGGTCTTGATTCGCTTGACGCTGCTG | 0.697 | 0.983 |
| CCGATTAACATCAAAGTTCCCCCTGATGTTAATCGGGTCTTGATTCGCTTGACGCTGCTG | 11.3 | 8.65 |
| CCGATTAACATCAGGGGGGGAGATGATGTTAATCGGGTCTTGATTCGCTTGACGCTGCTG | 8.63 | 3.66 |
| CCGATTAACATCAAGGGGGGGATTGATGTTAATCGGGTCTTGATTCGCTTGACGCTGCTG | 4.35 | 5.64 |
| CCGATTAACATCAATTTCCCCCGTGATGTTAATCGGGTCTTGATTCGCTTGACGCTGCTG | 12.3 | 5.65 |
| CCGATTAACATCAAGGGACTTTCTGATGTTAATCGGGTCTTGATTCGCTTGACGCTGCTG | 0.991 | 7.3 |
| CCGATTAACATCAGTTGTCCCGCTGATGTTAATCGGGTCTTGATTCGCTTGACGCTGCTG | 0.719 | 0.222 |
